# Data published in PubChem BioAssay AID588591 (National Center for Advancing Translational Sciences (NCATS), 2011).
# In all, about 390,000 compounds went through this assay and about 4,700 (1.2%) were called active. The shares of active, inactive and inconclusive entries below differ from those in the screen. Calls follow the shape of the dose curve; as a rule, active = well fitted inhibition curve with a large enough effect; inconclusive = small, poorly fitted or top-dose-only effect, or another doubt; inactive = no such curve, though single readings can be large or run the other way. Where the call is inconclusive, the potency comes from a doubtful curve fit.
# Molecular target: DNA polymerase eta (Homo sapiens) (UniProt Q9Y253)
# UniProt Q9Y253, sequence (Q9Y253 whole entry, looked up): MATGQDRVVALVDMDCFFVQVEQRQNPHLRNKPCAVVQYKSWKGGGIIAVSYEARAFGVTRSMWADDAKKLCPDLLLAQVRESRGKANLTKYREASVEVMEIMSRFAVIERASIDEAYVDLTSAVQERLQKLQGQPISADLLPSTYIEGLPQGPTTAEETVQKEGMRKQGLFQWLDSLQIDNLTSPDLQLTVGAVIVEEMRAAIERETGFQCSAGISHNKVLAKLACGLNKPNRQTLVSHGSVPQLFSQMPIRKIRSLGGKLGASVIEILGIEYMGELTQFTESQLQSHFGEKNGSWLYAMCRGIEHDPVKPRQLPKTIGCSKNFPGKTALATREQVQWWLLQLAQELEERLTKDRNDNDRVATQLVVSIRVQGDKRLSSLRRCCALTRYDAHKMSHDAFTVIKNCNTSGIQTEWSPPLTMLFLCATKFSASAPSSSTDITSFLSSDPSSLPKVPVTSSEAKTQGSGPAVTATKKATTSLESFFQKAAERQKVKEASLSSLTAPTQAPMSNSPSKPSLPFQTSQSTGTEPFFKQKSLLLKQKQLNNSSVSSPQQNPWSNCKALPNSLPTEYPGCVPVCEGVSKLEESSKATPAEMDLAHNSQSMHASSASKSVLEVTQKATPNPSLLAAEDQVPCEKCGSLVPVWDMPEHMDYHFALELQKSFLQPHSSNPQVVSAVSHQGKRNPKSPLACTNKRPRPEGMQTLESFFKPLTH
# Assay: qHTS for Inhibitors of Polymerase Eta
# Settings: recombinant Pol eta, fluorescent DNA replication assay; series mostly up to 114 µM
# In short: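 Pol eta at 10 nM preincubated with compounds 15 min at room temperature; reaction started with fluorescent substrate (50 nM final) and read kinetically at 0 and 10 min.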
# Potency is read from the fitted curve at half-maximal effect; tags tell the direction and shape of the fitted curve.
row,SMILES,Potency
1,O=C(Nc1ccc(-c2nc3ccccc3[nH]2)cc1)c1ccccc1NS(=O)(=O)c1ccc(F)cc1,active: 28.2 µM
2,COC(=O)c1[nH]c2cccc(OC)c2c1NC(=O)CN1CC2(C)CC1CC(C)(C)C2 (centres undefined),"inconclusive: 79.4 µM [inhibitor, partial curve, poor fit]"
3,C=C(C)C(=O)Nc1cccc(C2=NOC3(C2)C[C@@H](C(N)=O)N(C(=O)CC(c2ccccc2)c2ccccc2)C3)c1 (some centres undefined),active: 3.98 µM
4,COc1cc(/C=N/NC(=O)c2ccc(CN(C)S(=O)(=O)c3ccc(C)cc3)cc2)ccc1O,"inconclusive: 89.1 µM [inhibitor, partial curve]"
5,O=C(CSc1ccc2c(c1)OCCO2)NCC1CCCO1 (centres undefined),"inconclusive: 3.55 µM [inhibitor, partial curve]"
6,C[C@H](NC(=O)c1nc[nH]c1C(=O)NCC(=O)OCc1ccccc1)C(=O)OCc1ccccc1,"inconclusive: 89.1 µM [inhibitor, partial curve, poor fit]"
7,O=C(O)c1ccc(C=NN2CCCCCC2)cc1,"inconclusive: 31.6 µM [inhibitor, partial curve, poor fit]"
8,O=C1NC(=O)C2(COC3(CCCC3)OC2)S1,"inconclusive: 14.1 µM [inhibitor, full curve, poor fit]"
9,C#CCN(C[C@@H]1[C@@H](OC(=O)NCC2CCCCC2)[C@@H](OC(=O)NCC2CCCCC2)Cn2c(=O)n(CCCCCC)c(=O)n21)S(=O)(=O)c1ccc(C)cc1,inactive
10,CCOC(=O)c1csc(NC(=O)Nc2cccc(Cl)c2)n1,"inconclusive: 22.4 µM [inhibitor, partial curve]"
11,CC(C)(C)c1ccc(C(=O)OCC(=O)N2CCC(c3ccccc3)=N2)cc1,inactive
12,O=C(c1cnc(N2CCCCC2)c2ccccc12)N1CCN(c2cccc(Cl)c2)CC1,inactive
13,CCS(=O)(=O)N1Cc2ccccc2CC1C(=O)Nc1nc2ccccc2s1 (centres undefined),"inconclusive: 12.6 µM [inhibitor, partial curve]"
14,O=C(CCc1nc2ccccc2c(=O)[nH]1)Nc1nnc(SCc2ccccc2F)s1,"inconclusive: 7.08 µM [inhibitor, partial curve]"
15,O=C(Nc1ccc(F)cc1)Nc1ccc2snnc2c1,inactive
16,CCN(c1ccccc1)S(=O)(=O)c1cc(C(=O)O)ccc1C,active: 12.6 µM
17,Nc1nc(CSc2ccc(Cl)cc2)nc(N2CCCCC2)n1,"inconclusive: 89.1 µM [inhibitor, partial curve, poor fit]"
18,O=C(Nc1cccc(-c2cn3c(n2)SCC3)c1)c1ccc(Br)o1,"inconclusive: 100 µM [inhibitor, partial curve, poor fit]"
19,COc1ccccc1CNCC(=O)Nc1ccccc1-n1cccc1,"inconclusive: 89.1 µM [inhibitor, partial curve, poor fit]"
20,CCn1c(O)c(N=Nc2ccc3ccccc3n2)c2ccccc21,"inconclusive: 50.1 µM [inhibitor, partial curve, poor fit]"
21,COC(=O)c1ccc(CSc2nnc(NC(=O)C3CC(=O)N(c4ccc5c(c4)OCCO5)C3)s2)cc1 (centres undefined),"inconclusive: 12.6 µM [inhibitor, partial curve, poor fit]"
22,CCOC(=O)c1c(C)oc2nc(C)nc(N3CCN(c4ccc(OC)cc4)CC3)c12,"inconclusive: 100 µM [inhibitor, partial curve, poor fit]"

row,SMILES,Potency
1,CCCCNC(=O)CC1N=C2c3ccccc3N=C(SCC(=O)Nc3ccc(OC)cc3)N2C1=O (centres undefined),inactive
2,O=C(c1ccc2c(=O)n3c(nc2c1)CCCCC3)N1CCc2ccccc21,inactive
3,O=C(N/N=C/c1cc(Br)c(O)c(Br)c1O)c1cccnc1,active: 39.8 µM
4,Cc1cccc(NS(=O)(=O)c2nnc(NC(=O)c3cccc(C)c3)s2)c1,inactive
5,COc1cc(OC)cc(C(=O)NCC(=O)OCc2cc(=O)oc3cc(OC)ccc23)c1,"inconclusive: 25.1 µM [inhibitor, partial curve, poor fit]"
6,O=C(NCC1(c2ccccc2)CCCC1)c1ccc(Br)cc1,"inconclusive: 89.1 µM [inhibitor, partial curve, poor fit]"
7,COC(=O)/C=C1\SC(=Nc2ccc(OC)cc2)NC1=O,inactive
8,O=C(N/N=C/C=C/c1ccccc1)c1cc2c(ccc3ccccc32)o1,"inconclusive: 11.2 µM [inhibitor, partial curve, poor fit]"
9,COc1nc(-c2ccc(Cl)cc2)ccc1-c1noc(-c2cccs2)n1,"inconclusive: 56.2 µM [inhibitor, partial curve, poor fit]"
10,Cc1c(CC(=O)O)c(=O)oc2cc(OCc3nn[nH]n3)ccc12,"inconclusive: 39.8 µM [inhibitor, single point]"
11,COc1cccc2cc(C(=O)C3=C(O)C(=O)N(CCN4CCOCC4)C3c3ccc(Cl)cc3)oc12 (centres undefined),"inconclusive: 17.8 µM [inhibitor, full curve, poor fit]"
12,Cc1ccc([C@@H]2CC=C(C(=O)O)[C@H](c3ccc(Br)cc3)N2S(=O)(=O)c2ccccc2C)cc1,"inconclusive: 89.1 µM [inhibitor, partial curve]"
13,COc1ccccc1-n1c(SCc2cc(=O)oc3cc(O)ccc23)nc2ccccc2c1=O,active: 31.6 µM
14,Cc1ccc(C(=O)NC(=S)Nc2ccc3[nH]c(=O)[nH]c3c2)cc1,"inconclusive: 35.5 µM [inhibitor, single point]"
15,COc1cccc(CNS(=O)(=O)c2ccc(-c3cc(C(F)(F)F)on3)s2)c1,inactive
16,O=c1cc(-c2ccccc2)nc(N2CCN(Cc3ccc4c(c3)OCO4)CC2)[nH]1,"inconclusive: 44.7 µM [inhibitor, partial curve, poor fit]"
17,C=CCn1c2ccccc2c2nnc(SCC(=O)Nc3cc(C)on3)nc21,"inconclusive: 15.8 µM [inhibitor, full curve, poor fit]"
18,CCNC(=S)N1CCC(C(N)=O)CC1,"inconclusive: 100 µM [inhibitor, partial curve, poor fit]"
19,CC(=O)Nc1ccc(NC(=O)CSc2ccc(-c3cccs3)nn2)cc1,inactive
20,CN(CC(=O)Nc1cccc(F)c1)C(=O)c1ccc(-c2cccc(C(F)(F)F)c2)o1,"inconclusive: 35.5 µM [inhibitor, partial curve, poor fit]"
21,COc1cc(/C=N/NC(=O)Cc2nnc(NC(=O)c3ccccc3)s2)ccc1O,inactive
22,CCc1cc2c(cc3c(=O)n(CC(=O)NC4CCCCC4)ncn32)s1,inactive

row,SMILES,Potency
1,O=C1c2ccccc2-c2onc3ccc(NCc4ccco4)c1c23,"inconclusive: 89.1 µM [inhibitor, partial curve, poor fit]"
2,COc1cccc(CN(C)C(=O)CNC(=O)c2ccc3c(c2)OCO3)c1OC,"inconclusive: 79.4 µM [inhibitor, partial curve, poor fit]"
3,C=CCN1C(=O)/C(=C/c2ccc(OC(C)=O)c(OCC)c2[N+](=O)[O-])SC1=S,active: 20 µM
4,O=C(NCc1ccccc1Cl)c1ccc(CS(=O)Cc2ccc(Cl)cc2)o1 (centres undefined),"inconclusive: 79.4 µM [inhibitor, partial curve, poor fit]"
5,Cc1nc(CS(=O)(=O)c2ccc(Cl)cc2)cc(Sc2ccc(Cl)cc2)n1,"inconclusive: 20 µM [inhibitor, partial curve, poor fit]"
6,CC(C)Nc1nc(NC(C)C)nc(Oc2ccc(OCc3ccccc3)nn2)n1,"inconclusive: 35.5 µM [inhibitor, partial curve, poor fit]"
7,N#Cc1ccc2ccn(CC(=O)NCc3ccco3)c2c1,"inconclusive: 31.6 µM [inhibitor, partial curve, poor fit]"
8,CC(=O)NC12CC3CC(C1)CC(C(=O)OCC(=O)Nc1ncc(Cl)c(C)c1Cl)(C3)C2,"inconclusive: 56.2 µM [inhibitor, partial curve, poor fit]"
9,Cc1cc(/C=C2/NC(=S)NC2=O)c(C)n1-c1cccnc1,"inconclusive: 35.5 µM [inhibitor, partial curve, poor fit]"
10,COc1ccc(NC(=O)CN2CCCCC2)cc1S(=O)(=O)N1CCCCC1,"inconclusive: 0.631 µM [inhibitor, full curve, poor fit]"
11,C#CCn1cnc2c(cnn2-c2ccc(F)cc2)c1=O,inactive
12,Cc1ccc(OCC(=O)N/N=C\c2ccc(-c3cccc(C(=O)O)c3)o2)c(C)c1,active: 3.55 µM
13,Cc1c(C(=O)N/N=C/c2ccoc2)cccc1[N+](=O)[O-],"inconclusive: 44.7 µM [inhibitor, partial curve]"
14,COc1cc(NC(=O)c2cc([N+](=O)[O-])ccc2NC(=O)CNCc2ccccn2)cc(OC)c1,"inconclusive: 20 µM [inhibitor, full curve, poor fit]"
15,COC(=O)c1ccc(Cn2c(SCc3ccccc3)nc3ccncc32)cc1,inactive
16,CCOc1ccc(/C=C2\SC(=S)N(NS(=O)(=O)c3ccc(C)cc3)C2=O)cc1OC,"inconclusive: 89.1 µM [inhibitor, single point]"
17,Cc1ccc(S(=O)(=O)N2CCOCC2)cc1C(=O)Nc1ccc(S(=O)(=O)Nc2nccs2)cc1,inactive
18,O=C(CSc1nc2cccnc2n1Cc1ccccc1)NCc1ccco1,"inconclusive: 25.1 µM [inhibitor, partial curve, poor fit]"
19,O=C(Nc1cccnc1)c1ccc(NS(=O)(=O)c2cc([N+](=O)[O-])ccc2Cl)cc1,active: 22.4 µM
20,Cc1ccnc2nc(C(=O)OCC(=O)NC3CCCC(C)C3C)nn12 (centres undefined),"inconclusive: 89.1 µM [inhibitor, partial curve, poor fit]"
